This passage reports TGI and GI50 results from PubChem BioAssay (NCI).

Some test systems named below: CCRF-CEM leukemia; M14 melanoma; MDA-MB-231 breast; SF-539 CNS; SR leukemia; COLO 205 colon; HOP-92 NSCLC; SK-MEL-28 melanoma; SK-MEL-5 melanoma; HL-60(TB) leukemia; KM12 colon; OVCAR-3 ovarian; SF-295 CNS; A549 NSCLC; CAKI-1 renal; DU-145 prostate; HS 578T breast; K-562 leukemia; MCF7 breast; MDA-N; NCI-H522 lung; NCI/ADR-RES ovarian; OVCAR-8 ovarian; RXF 393 renal; SK-OV-3 ovarian; SN12C renal; SNB-75 CNS; SW-620 colon; T-47D breast; TK-10 renal; U251 CNS; NCI-H226 lung.

Common to all, as to test: NCI-60 cell line screen, 48 h

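Briefly, cells in 96-well plates were exposed to five compound concentrations for 48 h, and endpoints were estimated by linear interpolation. GI50 is the concentration that inhibits growth by half.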 Certain results were filed several times, with different values. Only these are listed. There may be further records. For part of these data: The tests behind the records often covered other concentration ranges, which the source does not state; some values may only mark the edge of a range. For part of these data: Values given together are repeats across runs, samples, wells, individuals or studies. Marks in square brackets tell the records apart. Letters hold for one entry only.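 TGI marks complete inhibition of growth.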

On to `COc1ccc2cc1Oc1ccc(cc1)C[C@H]1c3cc(c(OC)cc3CCN1C)Oc1c(OC)c(OC)cc3c1[C@H](C2)N(C)CC3`, for which the TGI in the assay on CCRF-CEM leukemia is 14.6 µM, 18.6 nM [sample A] and > 100 µM [sample B]; in the assay with M14 melanoma, 1.62 µM, 3.36 µM [sample A] and 69.7 µM [sample B]; in the assay with MDA-MB-231 breast it was 13 µM, 5.34 µM [sample A] and 60.3 µM [sample B]; in the assay with SF-539 CNS, 10.6 µM, 4.05 µM [sample A] and 53.9 µM [sample B]; in the assay on SR leukemia, 15.8 µM, 5.09 µM [sample A] and 93 µM [sample B].

Turning to `CC(=O)Nc1cccc(-n2c(=O)n(C3CC3)c(=O)c3c(Nc4ccc(I)cc4F)n(C)c(=O)c(C)c32)c1`, the TGI in the assay on COLO 205 colon was 18.7 µM [sample A, mean of 2 tests] and 381 nM [sample B, mean of 2 tests]; in the assay on HOP-92 NSCLC, < 10 nM [sample A, mean of 2 tests] and 138 nM [sample B, mean of 2 tests]; in the assay with SK-MEL-28 melanoma it was 21 µM [sample A, mean of 2 tests] and 31.2 nM [sample B, mean of 2 tests]. Moreover, the GI50 in the assay on SK-MEL-5 melanoma was < 13.3 nM [sample A, mean of 2 tests] and 276 nM [sample B, mean of 2 tests].

In the case of `O=c1cc(-c2cccc(F)c2)[nH]c2cc3c(cc12)OCO3`, the TGI in the assay on HL-60(TB) leukemia is 75 µM and 370 nM; in the assay with KM12 colon it was 75 µM and 2.38 µM; with OVCAR-3 ovarian, 75 µM and 70.8 nM; with SF-295 CNS, 390 nM and 7.21 µM; in the assay with SK-MEL-5 melanoma, 360 nM and 9.66 µM.

With `CCc1c2c(nc3cc4c(cc13)OCO4)-c1cc3c(c(=O)n1C2)COC(=O)[C@]3(O)CC`, the GI50 was < 1 nM and 11.8 nM in the assay with A549 NSCLC; < 1 nM and 16.5 nM in the assay on DU-145 prostate; 9.06 µM and > 100 µM with HS 578T breast; < 1 nM and 24.3 nM in the assay with K-562 leukemia; 60.2 nM and 9.06 µM with MDA-N; 3.53 nM and 81.3 nM in the assay with NCI-H522 lung. The GI50 with NCI/ADR-RES ovarian is < 1 nM and 12 nM; with OVCAR-8 ovarian it was 2.27 nM and 49.9 nM; in the assay on RXF 393 renal, 4.32 nM and 102 nM; in the assay with SK-MEL-5 melanoma, < 1 nM and 11.4 nM; with SK-OV-3 ovarian it was 2.95 nM and 32.8 nM; with SN12C renal, < 1 nM and 12.7 nM. Further, the GI50 is < 1 nM and 32.9 nM in the assay on SNB-75 CNS; 2.19 nM and 36.4 nM in the assay on SW-620 colon; < 1 nM and 14.1 nM in the assay with U251 CNS. For the same molecule, the TGI with CAKI-1 renal is 1.48 µM and > 100 µM; in the assay on HL-60(TB) leukemia it was 1.73 nM and > 100 µM; in the assay on MCF7 breast, 911 nM and > 100 µM; in the assay with NCI-H522 lung it was 9.41 µM and > 100 µM; with OVCAR-8 ovarian, 250 nM and > 100 µM; in the assay with SK-OV-3 ovarian, 6.52 µM and > 100 µM. Further, the TGI in the assay with SNB-75 CNS is 197 nM and > 100 µM; in the assay on SR leukemia it was 14.9 nM and > 100 µM; with T-47D breast, 5.99 nM and > 100 µM; in the assay on TK-10 renal it was 6.19 µM and > 100 µM; with U251 CNS, 63.1 nM and > 100 µM.

On to `CCCCCCCCCC[C@@H](O)[C@H]1CC[C@H]([C@H]2CC[C@H]([C@H](O)CCCCCCCCCC[C@@H]3CC(CC(C)=O)C(=O)O3)O2)O1` (some centres not stated), for which, in the assay with NCI/ADR-RES ovarian, the TGI was 4.23 µM and > 50 µM.

Turning to `CCCCCCCCCCCCC(=O)OC(c1cnco1)c1nc(C(O)CC(O)C(O)C(C)O)co1` (configuration not stated), the TGI in the assay with NCI-H226 lung is 9.77 µM and > 100 µM.
